Reference: ChEMBL document CHEMBL4888484, “Replenishing the malaria drug discovery pipeline: Screening and hit evaluation of the MMV Hit Generation Library 1 (HGL1) against asexual blood stage Plasmodium falciparum ,using a nano luciferase reporter read-out” (2022)
About 540 (0.36%) of roughly 150,000 compounds showed an effect of 50% or more. Some of the results follow.

tested on: Plasmodium falciparum; assay: Primary screen in NF54 nanoGlo assay, in single point, at 2uM, 72h; a lower Z score goes with more inhibition; type: functional, Erythrocyte; settings: timepoint 72 hour

Row | SMILES | % Inhibition | Z score
1 | CN(C(=O)OC(C)(C)C)c1cccc(C#N)c1 | -7% | 0.85
2 | O[C@H]1CC[C@@H]1Nc1ncc(Cl)cc1F | 2% | -0.31
3 | Cc1ccc2nc(C[C@H]3CN(C(=O)C(C)(C)C)CC[C@H]3CC(=O)O)[nH]c2c1 | 28% | -3.12
4 | Cc1ccc(NC(=O)CN2C(=O)CCCc3cc(S(=O)(=O)N4CCOCC4)ccc32)cc1F | -9% | 1.2
5 | CCc1nc([C@@H]2CCCN2Cc2c(C)noc2C)no1 | -7% | 0.89
6 | COCCN1CCN(C(C)CC#N)CC1C (stereo not drawn) | 11% | -1.45
7 | CCc1cnc(CN(C)Cc2sncc2Br)s1 | 8% | -0.78
8 | C[C@@H](c1ccccn1)N(C)CCC(=O)N1CCc2ccccc2C1 | 5% | -0.69
9 | CC1=NN(c2ccc(Cl)cc2)C(=O)C12Cc1ccc(Cl)cc1N1CCN(Cc3ccccc3)CC12 (stereo not drawn) | -30% | 3.55
10 | Cn1c(CN2CCOCC2)nnc1C1CCN(c2ncccc2F)CC1 | -5% | 0.99
11 | O=C([C@H]1C[C@@H](c2ccccc2)N2CCC[C@H]12)N1CCC(F)(F)CC1 | -10% | 1.9
12 | C=Cn1cc[n+](CC(=O)c2ccc(Cl)c(Cl)c2)c1 | -10% | 1.78
13 | CCOCCCNC(=O)c1cnn(C)c1C | -8% | 0.88
14 | CN(CCc1ccccn1)Cc1cnccn1 | -16% | 2.29
15 | N#Cc1ccc(NCCNC(=O)NC2CCCC2)nc1 | 1% | -0.2
16 | CC(C)NC(=O)N[C@@H]1CC[C@H]2CCOc3ccccc3C(=O)N3CCN(C4CCCCC4)C[C@H]3C(=O)NC[C@H]1O2 | -11% | 2.03
17 | O=C(Nc1ccccc1)c1nnc(C(=O)N2CCC(CC(=O)N3CCCCCC3)CC2)s1 | 0% | 0
18 | COc1ccc2c(c1)N(CC1=CCCOC1)C[C@H](C)O2 | -12% | 1.91
19 | Cn1ccnc1[C@@H](NC1CCOCC1)C1CC1 | 1% | -0.25
20 | COc1ccncc1NCc1ccc(C(=O)OC(C)(C)C)cc1 | 31% | -3.52
21 | CCOC(=O)N1CCN(C(=O)c2ccc(NCc3ccc(OC)cc3)c(S(=O)(=O)Nc3cccc(C(F)(F)F)c3)c2)CC1 | -5% | 0.6

Row | SMILES | % Inhibition | Z score
22 | CCN1CCN(C(=O)Cn2c(-c3cccs3)cc3ccccc32)CC1 | 8% | -1
23 | CCn1c(CN[C@@H](C)c2ccc(Cl)cc2)nc2cc(S(=O)(=O)N3CCCCC3)ccc21 | 9% | -1.15
24 | CCC1(CC)CCN(C(=O)N[C@H]2CCn3ccnc32)C1 | 2% | -0.33
25 | CN1CCCN(c2nc3ccccc3nc2NS(=O)(=O)c2ccccc2C(F)(F)F)CC1 | -6% | 0.89
26 | CC(C)[C@H](NC(=O)Nc1ccc2c(c1)OCO2)c1cccs1 | -2% | 0.36
27 | CC1CCN(c2ncc(F)c(N)n2)CC1 | 28% | -3.22
28 | CCc1ccc(-n2ncc(-c3cc(C(=O)NCc4ccccc4)c4ccccc4n3)c2C)cc1 | -9% | 1.15
29 | O=C(C1CCCC1)N1CC(S(=O)(=O)N2CCC[C@H](n3cncn3)C2)C1 | -11% | 1.41
30 | Cc1cccc(N2C(=O)c3ccc(NC(=O)COc4ccccc4Cl)cc3C2=O)c1C | 7% | -0.97
31 | Fc1ccc(CNc2ccc3nccnc3n2)c(F)c1 | -3% | 0.61
32 | CCC1(CC)CCN(C(=O)c2cc3ncccn3n2)C1 | -12% | 1.53
33 | CC[C@H]1C(=O)NCCN1C(=O)c1cc(C2CC2)on1 | -9% | 1.14
34 | COc1ccccc1C(=O)Nc1ccc2c(c1)nc(CN1CCN(C)CC1)n2C(C)C | -14% | 1.22
35 | Cn1cc(CNC(=O)[C@@H]2CCCN(CC(F)(F)F)C2=O)nn1 | -18% | 1.98
36 | O=S(=O)(c1ccccc1)N1CCN(Cc2nc3cc(Cl)ccc3o2)CC1 | -14% | 1.2
37 | CCN(CC)c1ccc(NS(=O)(=O)c2cc(C(=O)N3CCC(C)CC3)n(C)c2C)c(C)c1 | -11% | 2.23
38 | NC(=O)c1ccc(-c2noc(CC3CCCC3)n2)cc1 | -6% | 0.49
39 | Cc1ccc(NS(=O)(=O)c2cc(N(C)S(=O)(=O)c3ccccc3)c(C)cc2C)c(C)c1 | -1% | 0.21
40 | COc1ccc(Nc2nc(COC(=O)Cn3cnc4c3c(=O)n(C)c(=O)n4C)cs2)cc1 | -6% | 0.88
41 | c1ccc(N2CC[C@H](CNc3nccn4cnnc34)C2)cc1 | -7% | 0.8
42 | Cc1c[nH]c(CN2CCNC(=O)C23CCCC3)n1 | -8% | 1.53

Row | SMILES | % Inhibition | Z score
43 | CN(C(=O)OC(C)(C)C)[C@H]1CCCC[C@@H]1O | -3% | 0.28
44 | Cc1cccc(N(C)S(=O)(=O)c2ccsc2-c2nc(-c3ccc(F)cc3)no2)c1 | -14% | 1.96
45 | O=C1C[C@H](c2cc(Cl)ccc2Cl)c2sc(N3CCCC3)nc2CN1 | -3% | 0.58
46 | CC(NC(=O)C1CCOC1)c1cn[nH]c1 (stereo not drawn) | -8% | 1.13
47 | Cc1ccc(C)c(C(=O)N(C)Cc2snnc2C)c1 | -4% | 0.55
48 | O=C1c2ccccc2C(c2ccc(NC(=O)c3cccc4ccccc34)cc2)(c2ccc(NC(=O)c3cccc4ccccc34)cc2)c2ccccc21 | 95% | -13.49
49 | C[C@H](Nc1nc(-c2ccccn2)nc2c1CCC2)c1ccncc1 | 8% | -1.55
50 | Cc1cc(C)cc(N2CC[C@H](NC(=O)C3CCCCC3)C2=O)c1 | -4% | 0.66
51 | Cc1nc(NCCc2cc[nH]n2)cc([C@H]2C[C@@H](O)C2)n1 | -18% | 2.15
52 | CC(C)c1nc(C(=O)N2CCn3nc(C#N)cc3C2)cs1 | -5% | 0.74
53 | C[C@H]1c2ccccc2CN1C(=O)NCc1ncn(C)n1 | 1% | -0.15
54 | Cc1ccc(CC(=O)N2CC[C@@]3(CC(=O)c4ccccc4O3)C2)cn1 | 3% | -0.43
55 | CCCc1cc(C(=O)N(Cc2ccccc2)[C@H]2C[C@H]3CC[C@@H](C2)N3C)no1 | -11% | 1.17
56 | C[C@H](NS(=O)(=O)c1ccccc1C(F)(F)F)C(=O)NCc1ncccc1O | 0% | 0.02
57 | COc1ccc(N2C(=O)CN(C(=O)COc3ccccc3OC)CC23CCCC3)cc1 | -6% | 1.18
58 | O=C(O)CCC1CCCN(C(=O)C2CCCO2)C1 (stereo not drawn) | -6% | 0.72
59 | O=c1ccc(C2CC2)nn1Cc1c(Cl)oc2ccccc12 | -3% | 0.44
60 | CC(C)N(C)C(=O)NCC1CCN(CC#N)CC1 | -13% | 1.69
61 | O=C(NC[C@H]1CCN1C1CCCCC1)NC1CCC(C(F)F)CC1 (stereo partly drawn) | 6% | -0.81
62 | C[C@@H](C(=O)NCC(=O)Nc1cn[nH]c1)c1ccc(Cl)s1 | -11% | 1.07
63 | C[C@@]1(C(=O)Nc2cccc(CN3CCNC(=O)C3)c2)CCc2ccccc21 | 27% | -3.58

Row | SMILES | % Inhibition | Z score
64 | Cc1ncnc(OCC2CCN(C(=O)CCC(F)(F)F)CC2)c1C | -10% | 1.13
65 | Cc1cccc(CNC(=O)[C@@H]2CCN(c3ccccc3Cc3ccccc3)C2=O)c1 | -4% | 0.44
66 | NC1(c2nc(-c3nccs3)cs2)CCCC1 | -7% | 0.63
67 | c1cn(Cc2noc(C3CCC3)n2)c(-c2cc3n(n2)CCCNC3)n1 | -4% | 0.56
68 | CC(C)c1nnc(NC(=O)[C@@]2(C)CC2(Cl)Cl)s1 | 4% | -0.38
69 | C[C@H]1CCCCN1C(=O)CN1CCN(c2noc(C(C)(C)C)n2)CC1 | -1% | 0.18
70 | CN(C[C@H]1COc2ccccc2O1)C1CCOCC1 | 7% | -0.95
71 | Cc1c(-c2nnc(C(=O)NCCc3ccccc3)o2)oc2ccccc12 | 3% | -0.37
72 | Cc1ccc(NCC(F)(F)C(F)F)cc1 | -13% | 1.75
73 | CC(c1ccc(Cl)cc1)C(C)N(C)S(=O)(=O)N(C)CCC#N (stereo not drawn) | -12% | 1.17
74 | O=C(c1ccc(O)c(Cl)c1)N1C[C@@H]2CC[C@H]1CN(C1CCOCC1)C2 | -9% | 1.77
75 | O=C(N[C@H]1CCO[C@@H]1c1cc[nH]n1)c1csc(C2CCCCC2)c1 | -12% | 2.29
76 | COc1cc(C(=O)NCc2cc(F)cc3c(C)c(C)[nH]c23)ccn1 | -3% | 0.32
77 | CN(CC(=O)NCc1cccnc1)C(=O)c1cc2n(n1)CCCN(Cc1ccc(F)cc1)C2=O | -4% | 0.36
78 | CCC(CC)(CO)CN(C)C(=O)c1cc(F)cc(Cl)c1 | -7% | 1.45
79 | Cc1cccc(C)c1OCCC(=O)N1CCCNC(=O)[C@@H]1C | 1% | -0.11
80 | CC(C)Oc1cccc(C(=O)NC2(c3ncon3)CCOCC2)n1 | -9% | 1.41
81 | CC(C)O/C(=N/C(=O)c1ccc(C(F)(F)F)cc1)N(CCc1ccccc1)Cc1ccccc1 | -7% | 0.92
82 | COC(=O)C1CC(O)CN1Cc1nccn1Cc1ccccc1 (stereo not drawn) | -11% | 1.35
83 | Cc1nc(-c2scc3c2OCCO3)n(-c2ccccn2)n1 | -13% | 1.75
84 | CN(C)c1ccccc1-c1cncc(C(N)=O)c1 | -6% | 0.8
